# Laboratory results as given in publication PMC12820563.
# This is one part of the list. The list includes weakly bound sequences.
# Target: T1, MBP-FoxP3dN (UniProt Q99JB6)
# T1 sequence: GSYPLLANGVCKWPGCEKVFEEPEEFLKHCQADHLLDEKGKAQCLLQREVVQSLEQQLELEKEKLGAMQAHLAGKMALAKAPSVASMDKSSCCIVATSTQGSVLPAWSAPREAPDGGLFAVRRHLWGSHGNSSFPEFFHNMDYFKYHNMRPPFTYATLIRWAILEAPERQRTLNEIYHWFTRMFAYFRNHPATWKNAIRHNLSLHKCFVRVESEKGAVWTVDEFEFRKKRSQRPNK
# Test: PD-seq (MBP pull-down with sequencing)
# Details: 20 mM Tris-HCl pH 7.5, 100 mM NaCl, 1.5 mM MgCl2, 0.4 uM protein, 0.1 uM dsDNA library, 30 min, room temperature, amylose pull-down; high values mean tight binding; double strand, one strand shown
row,Sequence,binding signal (RPM ratio (pull-down/input))
1,GATGATTGTTCTCCCAGCTGATGAATTATGCCGGTCGAGTAAACAAATTTTCCTAATCTTTCTGTTCAAGCGCCATCTAC,1.15
2,GATGATTGTTCTCCCAGCTGATGAATTTAACTCCTCGAGTAAACAAATTTTCCTAATCTTTCTGTTCAAGCGCCATCTAC,0.351
3,GATGATTGTTCTCCCAGCTGATGAATTTTCTAAGTCGAGTAAACAAATTTTCCTAATCTTTCTGTTCAAGCGCCATCTAC,0.193
4,GATGATTGTTCTCCCAGCTGATGAATTAAGCAGCTCGAGTAAACAAATTTTCCTAATCTTTCTGTTCAAGCGCCATCTAC,1.33
5,GATGATTGTTCTCCCAGCTGATGAATTCACCGTGTCGAGTAAACAAATTTTCCTAATCTTTCTGTTCAAGCGCCATCTAC,0.424
6,GATGATTGTTCTCCCAGCTGATGAATTTATGTAATCGAGTAAACAAATTTTCCTAATCTTTCTGTTCAAGCGCCATCTAC,2.2
7,GATGATTGTTCTCCCAGCTGATGAATTGCCTATGTCGAGTAAACAAATTTTCCTAATCTTTCTGTTCAAGCGCCATCTAC,0.617
8,GATGATTGTTCTCCCAGCTGATGAATTGGTGAGCTCGAGTAAACAAATTTTCCTAATCTTTCTGTTCAAGCGCCATCTAC,0.441
9,GATGATTGTTCTCCCAGCTGATGAATTAGAAGGTTCGAGTAAACAAATTTTCCTAATCTTTCTGTTCAAGCGCCATCTAC,0.276
10,GATGATTGTTCTCCCAGCTGATGAATTGGCCGATTCGAGTAAACAAATTTTCCTAATCTTTCTGTTCAAGCGCCATCTAC,0.305
11,GATGATTGTTCTCCCAGCTGATGAATTCTTATAGTCGAGTAAACAAATTTTCCTAATCTTTCTGTTCAAGCGCCATCTAC,0.248
12,GATGATTGTTCTCCCAGCTGATGAATTTCGTACCTCGAGTAAACAAATTTTCCTAATCTTTCTGTTCAAGCGCCATCTAC,0.775
13,GATGATTGTTCTCCCAGCTGATGAATTCTCGATTTCGAGTAAACAAATTTTCCTAATCTTTCTGTTCAAGCGCCATCTAC,0.367
14,GATGATTGTTCTCCCAGCTGATGAATTCTATCATTCGAGTAAACAAATTTTCCTAATCTTTCTGTTCAAGCGCCATCTAC,1.72
15,GATGATTGTTCTCCCAGCTGATGAATTTTCATCATCGAGTAAACAAATTTTCCTAATCTTTCTGTTCAAGCGCCATCTAC,0.474
16,GATGATTGTTCTCCCAGCTGATGAATTTAACGAATCGAGTAAACAAATTTTCCTAATCTTTCTGTTCAAGCGCCATCTAC,0.242

row,Sequence,binding signal (RPM ratio (pull-down/input))
1,GATGATTGTTCTCCCAGCTGATGAATTTGAACTATCGAGTAAACAAATTTTCCTAATCTTTCTGTTCAAGCGCCATCTAC,0.365
2,GATGATTGTTCTCCCAGCTGATGAATTCGGCTGCTCGAGTAAACAAATTTTCCTAATCTTTCTGTTCAAGCGCCATCTAC,0.484
3,GATGATTGTTCTCCCAGCTGATGAATTCTTGGATTCGAGTAAACAAATTTTCCTAATCTTTCTGTTCAAGCGCCATCTAC,0.229
4,GATGATTGTTCTCCCAGCTGATGAATTCGACAAGTCGAGTAAACAAATTTTCCTAATCTTTCTGTTCAAGCGCCATCTAC,0.255
5,GATGATTGTTCTCCCAGCTGATGAATTGAGTTAATCGAGTAAACAAATTTTCCTAATCTTTCTGTTCAAGCGCCATCTAC,0.369
6,GATGATTGTTCTCCCAGCTGATGAATTCATGGTCTCGAGTAAACAAATTTTCCTAATCTTTCTGTTCAAGCGCCATCTAC,0.77
7,GATGATTGTTCTCCCAGCTGATGAATTTTTTGAATCGAGTAAACAAATTTTCCTAATCTTTCTGTTCAAGCGCCATCTAC,0.229
8,GATGATTGTTCTCCCAGCTGATGAATTTCCCCAATCGAGTAAACAAATTTTCCTAATCTTTCTGTTCAAGCGCCATCTAC,0.258
9,GATGATTGTTCTCCCAGCTGATGAATTTTTGTAGTCGAGTAAACAAATTTTCCTAATCTTTCTGTTCAAGCGCCATCTAC,0.53
10,GATGATTGTTCTCCCAGCTGATGAATTGTAATAGTCGAGTAAACAAATTTTCCTAATCTTTCTGTTCAAGCGCCATCTAC,1.05
11,GATGATTGTTCTCCCAGCTGATGAATTGATCATGTCGAGTAAACAAATTTTCCTAATCTTTCTGTTCAAGCGCCATCTAC,0.656
12,GATGATTGTTCTCCCAGCTGATGAATTCCTGTAGTCGAGTAAACAAATTTTCCTAATCTTTCTGTTCAAGCGCCATCTAC,0.369
13,GATGATTGTTCTCCCAGCTGATGAATTGCAATAGTCGAGTAAACAAATTTTCCTAATCTTTCTGTTCAAGCGCCATCTAC,1.23
14,GATGATTGTTCTCCCAGCTGATGAATTCATAAAATCGAGTAAACAAATTTTCCTAATCTTTCTGTTCAAGCGCCATCTAC,0.176
15,GATGATTGTTCTCCCAGCTGATGAATTTGTCGGGTCGAGTAAACAAATTTTCCTAATCTTTCTGTTCAAGCGCCATCTAC,3.54
16,GATGATTGTTCTCCCAGCTGATGAATTAACCCAATCGAGTAAACAAATTTTCCTAATCTTTCTGTTCAAGCGCCATCTAC,0.279
